Experimental data taken from PubChem BioAssay AID588855 (National Center for Advancing Translational Sciences (NCATS), 2011).
“And” between values parts separate entries of the source, which are not always exact repeats. Equal values may be shown once. Hit rate of the full screen: of about 410,000 compounds, about 5,000 (1.2%) were called active. Inconclusive results, whose numbers are uncertain, are shown with a selection of clear calls. The call rests on the fitted dose curve; in most records, active means well fitted inhibition curve with a large enough effect; inconclusive means small, poorly fitted or top-dose-only effect; inactive means no such curve, though single readings can be large or run the other way. Potencies of inconclusive entries are doubtful fits and often do not repeat.

Experiment: qHTS for Inhibitors of TGF-b; further: nearly all actives have a fitted effect of over 65% in size
Conditions: HepG2 CAGA-GFP TGF-b/SMAD3 reporter, GFP fluorescence, 18 h, TGF-beta stimulated, 500 pg/mL final; series mostly up to 46.1 µM; activity, negative = inhibition: at the top concentration
Summary of the method: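 TGF-beta reporter screen: HEPG2 CAGA-GFP, 1% FBS, 500 pg/mL TGF-beta final, 18 h; per-cell GFP summed per well; curves fitted and categorized by class.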
On the % scale 0 is the no-effect control and ±100 the full control effect; potency means the concentration at half of the fitted maximal effect; tags describe the fitted curve by direction and shape.

Row | Compound | Potency | activity, negative = inhibition
1 | c1ccc([C@H]2CNCCN2CCc2cccc3ccccc23)cc1 | inconclusive: 17.8 µM [inhibitor, single point] | 
2 | Cc1sc2ncnc(NCCCN3CCCC3=O)c2c1C |  | inactive: 12.4%
3 | COc1cccc(OC)c1OCCN1CCCC1 |  | inactive: -2.13%
4 | CC(=O)Nc1ccccc1Sc1ccccc1 | inconclusive: 0.112 µM [inhibitor, full curve, poor fit] | 
5 | O=C1c2cccc(OCC(=O)N3N=C(c4cccs4)CC3c3ccc(F)cc3)c2CCN1Cc1cccnc1 (stereo not given) | inconclusive: 7.08 µM [inhibitor, partial curve, poor fit] | 
6 | O=C(N/N=C/c1ccccc1Cl)c1[nH]c2ccc(Br)cc2c1-c1ccccc1 |  | inactive: 84.1%
7 | CC(C)(C)C1CCC(=NNC(=O)C2COc3ccccc3O2)CC1 (stereo not given) |  | inactive: 1.35%
8 | CCOC(=O)c1ccc(NC(=O)CSc2nnc(COc3ccccc3OC)n2CC)cc1 | inconclusive: 2.24 µM [inhibitor, partial curve, poor fit] | 
9 | C=CCOc1cccc(/C=C2\C(=O)N(Cc3ccc(C)cc3)C(C)=C2C(=O)OC)c1 | inconclusive: 8.91 µM [inhibitor, partial curve, poor fit] | 
10 | CC(C)(C)c1cc[n+](C2=C([O-])c3ccccc3C(=O)/C2=N\S(=O)(=O)c2cccs2)cc1 | active: 2.82 µM | 
11 | COc1cc(NC(=O)c2nn(C)c3c2COc2ccccc2-3)cc(OC)c1OC |  | inactive: -19%
12 | CC(C)c1cc(-c2nc(-c3ccc(Cl)cc3)no2)n[nH]1 | inconclusive: 35.5 µM [inhibitor, single point] | 
13 | COc1ccccc1C(=O)Nc1ccc2c(c1)CN(C(=O)CSC)CC2 |  | inactive: -13.5%
14 | Cc1ccc(CNC(=O)c2c(Nc3ccccc3C)sc(C(=O)c3ccc(F)cc3)c2N)cc1 | active: 17.8 µM | 
15 | Cc1ccc(C)c(OCCC(=O)Nc2ccc(S(=O)(=O)N3CCCC3)cc2)c1 | inconclusive: 35.5 µM [inhibitor, single point] | 
16 | Nc1c(C(=O)OCC2CCCO2)c2nc3ccccc3nc2n1C1CCCC1 (stereo not given) | inconclusive: 14.1 µM [inhibitor, single point] | 
17 | C/C(CC(=O)Nc1ccc(N(C)C)cc1)=N\NC(=O)c1ccncc1 | inconclusive: 0.794 µM [inhibitor, full curve, poor fit] | 
18 | COCCCNCCOc1ccc(C(C)(C)c2ccccc2)cc1 | inconclusive: 35.5 µM [inhibitor, single point] | 
19 | O=C(Nc1ccncc1)c1cc(F)cc(F)c1 |  | inactive: 10.5%
20 | COC(=O)Oc1ccc(/C=N/NC(=O)CN(c2ccccc2Cl)S(C)(=O)=O)cc1OC |  | inactive: -0.967%
21 | Cc1ccc(C)c(N2CCN(S(=O)(=O)c3ccc(-c4cc(C)no4)s3)CC2)c1 |  | inactive: -26.4%
22 | Cc1cccc(-n2c(SCC(=O)Nc3ccc(C)c(C)c3)nc3n[nH]c(C)c3c2=N)c1 | inconclusive: 3.55 µM [inhibitor, single point] | 
23 | C=C[C@@H]1c2cc(C)ccc2N(S(=O)(=O)c2ccc(C)cc2)[C@H](c2ccc(OC(C)=O)cc2)C1(C#N)C#N | inconclusive: 15.8 µM [inhibitor, single point] and inconclusive: 35.5 µM [inhibitor, partial curve, poor fit] | 

Row | Compound | Potency | activity, negative = inhibition
24 | CC1CC(C)C(=NNC(N)=O)C(C(O)CC2CCC(=O)NC2=O)C1 (stereo not given) | inconclusive: 15.8 µM [inhibitor, single point] | 
25 | Cc1nn(C(=O)CCC(=O)NCc2ccc(OC(C)C)cc2)c2ccccc12 |  | inactive: 6.28%
26 | O=C(OCCc1ccccc1)c1cc(O)c(O)c(O)c1 |  | inactive: -27.8%
27 | COC(=O)c1c(-c2ccc(OC)cc2)sc2ccc(OC)cc12 | inconclusive: 0.126 µM [inhibitor, full curve, poor fit] | 
28 | COc1cc(OC)c(OC)cc1/C=c1\[nH]c(=O)/c(=C/c2cc(OC)c(OC)cc2OC)[nH]c1=O | inconclusive: 5.62 µM [inhibitor, single point] | 
29 | CCC1C/C(=C/c2cccs2)C(=O)/C(=C/c2cccs2)C1 (stereo not given) | inconclusive: 35.5 µM [inhibitor, single point] | 
30 | COC(=O)C1CCN(C(=O)COC(=O)c2ccc(OC)c(S(=O)(=O)N3CCCc4ccccc43)c2)CC1 |  | inactive: -10.2%
31 | Cc1cc(NC(c2ccc(Cl)cc2)c2ccc3cccnc3c2O)no1 (stereo not given) | inconclusive: 12.6 µM [inhibitor, partial curve, poor fit] | 
32 | O=[N+]([O-])c1nn(-c2ccccc2)n(O)c1=NCCc1ccccc1 | inconclusive: 8.91 µM [inhibitor, partial curve] | 
33 | CCOC(=O)c1ccccc1NC(=O)c1c(C)oc2ncnc(N3CCOCC3)c12 |  | inactive: -2.39%
34 | Cn1c(=O)c2c(-c3ccccc3)n(-c3ccccc3Br)cc2n(C)c1=O | inconclusive: 11.2 µM [inhibitor, partial curve, poor fit] | 
35 | COc1ccc(OC)c(NC(=O)CCN2CCN(C/C=C/c3ccccc3)CC2)c1 |  | inactive: 12.5%
36 | NS(=O)(=O)c1cccc(NC(=O)CSc2nnc(-c3ccccc3)o2)c1 | inconclusive: 6.31 µM [inhibitor, single point] | 
37 | NC1(C#Cc2ccc3oc(=O)c(-n4cc(-c5ccsc5)nn4)cc3c2)CCCCC1 | inconclusive: 11.2 µM [inhibitor, single point] | 
38 | CCN1CCN(c2ccc(/C=C/c3ccnc4ccccc34)cc2)CC1 |  | inactive: -1.72%
39 | CC(=O)NC(NC(=S)Nc1ccc(N=Nc2ccccc2C)cc1C)C(Cl)(Cl)Cl (stereo not given) |  | inactive: 11.3%
40 | CCOc1ccccc1NC(=O)Cn1c(=O)n(Cc2ccco2)c(=O)c2sc3ccccc3c21 |  | inactive: -0.989%
41 | CCCSc1nnc(NC(=O)Nc2ccc(F)cc2)s1 | inconclusive: 22.4 µM [inhibitor, partial curve, poor fit] | 
42 | Cc1ccc(OCC(=O)Nc2ccc(CN3CCOCC3)cc2)cc1C | inconclusive: 11.2 µM [inhibitor, single point] | 
43 | Cn1ncc(Cl)c1C(=O)Nc1nc2ccc(Cl)cc2s1 | inconclusive: 15.8 µM [inhibitor, single point] | 
44 | Cc1ccc(N(CC2=NCCN2)c2cccc(O)c2)cc1 | inactive | 
45 | COc1cc(CNc2ncnc3c2ncn3[C@H]2CN(Cc3cc(OC)c(OC)c(OC)c3)C[C@@H](CO)O2)cc(OC)c1OC |  | inactive: 2.3%
